Experimental data reported in PubChem BioAssay AID1745845 (National Center for Advancing Translational Sciences (NCATS), 2022).
About 2,600 (0.72%) of roughly 360,000 compounds were called active. The shares of active, inactive and inconclusive entries below differ from those in the screen. Calls come from the whole dose curve; as a rule, active = well fitted inhibition curve with a large enough effect; inconclusive = small, poorly fitted or top-dose-only effect; inactive = no such curve, though single readings can be large or run the other way. A potency beside an inconclusive call is a rough fit, not a confirmed value.

Test: Primary qHTS for Inhibitors of ATXN expression; note: nearly all actives have a fitted effect of over 55% in size
Settings: HEK-293 ATXN2-luciferase reporter, luminescence, 24 h; activity change, negative = inhibition: at 57 µM (top of the series)
Outline: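 qHTS (up to 57 uM final) was run with 24 h compound exposure of reporter cells at 37 °C. Each well was multiplexed: SteadyGlo luminescence measured ATXN2-luciferase expression after a fluorogenic Gly-Phe-AFC viability readout (25 uM final).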
% is set by controls: 0 for no effect and ±100 for the full control effect; potency is the fitted concentration of half-maximal effect; tags give direction and shape of the fitted curve.

SMILES	Potency	activity change, negative = inhibition
COCCCNCCOCCOc1ccc(Cl)cc1C(C)(C)C	inconclusive: 22.4 µM [inhibitor, single point]	
C[C@@H]1ON(C)[C@H]2C[C@H]3c4[nH]c5ccc(-c6ccc7c(c6)OCO7)cc5c4CCN3C(=O)[C@@H]12	inconclusive: 39.8 µM [inhibitor, single point]	
CN(C)C(=O)CN1C(=O)C2CCCCN2C(=O)c2ccccc21 (configuration not stated)	inactive	
O=c1c(-c2ccc(Cl)cc2)c(C(F)(F)F)oc2c(CN3CCCCC3)c(O)ccc12	inactive	
CCc1ccc2nc3nc(C)cc(C)c3c(N)c2c1	inconclusive: 17.8 µM [inhibitor, single point]	
CCOc1ccc(CCNC(=O)c2cc3c(s2)-c2ccccc2OC3)cc1OCC	inconclusive: 11.2 µM [inhibitor, partial curve, poor fit]	
CCN(CC)C(=O)c1n[nH]c(=O)c2ccccc12	inactive	
Nc1nc(=S)c2ncn([C@@H]3O[C@H](CO)[C@@H](O)[C@H]3O)c2[nH]1	inconclusive: 1.58 µM [inhibitor, partial curve]	
CCOc1cccc(CNn2cnnc2)c1OCc1ccccc1Cl	inactive	
COCCCNCCCCOc1ccc(Br)cc1C	inconclusive: 7.52 µM [inhibitor, partial curve, poor fit]	
CC1(C(=O)NCc2cccc(C(F)(F)F)c2)CCN1CCc1ccccc1 (configuration not stated)	inconclusive: 15.8 µM [inhibitor, single point]	
CC(C)N1C(=O)S/C(=C/c2ccc(Sc3nc4ccccc4[nH]3)o2)C1=O	inconclusive: 31.6 µM [inhibitor, partial curve, poor fit]	
CCOC(=O)c1cccc(NC(=O)c2ccc3nc(Cc4ccccc4)oc3c2)c1	inconclusive: 1.78 µM [inhibitor, full curve]	
COc1cc(/C=N/NC(=O)CCN2CCN(C(c3ccccc3)c3ccccc3)CC2)ccc1O	inconclusive: 14.1 µM [inhibitor, partial curve, poor fit]	
CCOC(=O)c1c(C)[nH]c(C2=NNC(=Nc3ccccc3OC)SC2)c1C	inactive	
Cn1c(=O)c(Oc2cc(Cl)cc(Cl)c2)nc2ccccc21	inconclusive: 28.2 µM [inhibitor, single point]	
c1ccc2c(CSCCc3ccncc3)cccc2c1	inactive	
C[C@H](CO)N1C[C@H](C)[C@H](CN(C)S(=O)(=O)c2ccc(Cl)cc2)OCc2ccccc2-c2c(n(C)c3ccccc23)C1=O	inconclusive: 25.1 µM [inhibitor, partial curve]	
CCCCCc1cc(=O)oc2c(C(CCN3CCCC(C)C3)c3ccc(N(C)C)cc3)c(OC)cc(OC)c12 (configuration not stated)	inconclusive: 35.5 µM [inhibitor, single point]	
COc1ccccc1N1CCN(c2ncnc3sc(C)c(-c4ccccc4)c23)CC1	inconclusive: 28.2 µM [inhibitor, single point]	
CC1(C)CC(=O)c2c(C(F)(F)F)nn(-c3ccc(C(N)=O)c(NC4CCC(OC(=O)CN)CC4)c3)c2C1 (configuration not stated)	active: 0.217 µM	
CCC(CC)COC(=O)C(C#N)c1nc2ccccc2nc1N1CCN(CC)CC1 (configuration not stated)	inconclusive: 31.6 µM [inhibitor, single point]	
Cc1ccccc1OCc1nc(-c2ccc(NC(=O)c3ccc4c(c3)OCO4)cc2)no1	inconclusive: 35.5 µM [inhibitor, single point]	

SMILES	Potency	activity change, negative = inhibition
COc1ccc(-n2c(=O)c3c(c4cc(OC)ccc4n3C)n(Cc3cc(C)ccc3C)c2=O)cc1	inactive	
Cc1ccc(NC(=S)NC(=O)c2c(-c3ccccc3Cl)noc2C)cc1	inactive	
COc1ccc(CN(Cc2ccco2)c2cnc(S(C)(=O)=O)nc2C(=O)Nc2ccc(F)cc2)cc1	inactive	
CCCC(=O)NC(=S)Nc1c(C)cc(Br)cc1C	inactive	
CCOC(=O)c1c(C)[nH]c(C)c1C(=O)CSc1nnc(-c2ccc(OC(F)F)cc2)o1	inconclusive: 15.8 µM [inhibitor, partial curve]	
CCN(CC(=O)Nc1ccccc1-c1ccccc1)Cc1nc2ccccc2c(=O)[nH]1		inactive: -23.6% [at 11.3 µM]
C=Cn1ccnc1P(=S)(c1ccc2c(c1)c1ccccc1n2CC)c1nccn1C=C	inconclusive: 14.1 µM [inhibitor, partial curve, poor fit]	
CCCCC(=O)NC(c1ccc(N(CC)CC)cc1)c1ccc2cccnc2c1O (configuration not stated)	active: 2.82 µM	
CCN(C[C@H]1N[C@@](Cc2ccccc2)(C(=O)OC)[C@H]2C(=O)N(Cc3ccccc3)C(=O)[C@@H]12)C(=O)Nc1ccc(C(F)(F)F)cc1	inconclusive: 31.6 µM [inhibitor, single point]	
Oc1ccc(/C=N/N2CCN(C3c4ccccc4-c4ccccc43)CC2)c(O)c1	inconclusive: 28.2 µM [inhibitor, partial curve, poor fit]	
CCN(C(=O)c1cc2cc3ccc(OC)cc3nc2o1)c1cccc(C)c1	inconclusive: 39.8 µM [inhibitor, single point]	
CCCCCCCCN1C(=O)[C@H](CC(=O)N2CCSCC2)C[C@@]2(C(=O)OCC)CCCC=C12	inconclusive: 35.5 µM [inhibitor, single point]	
OC[C@@H]1CN(Cc2ccc(-c3ccccc3)cc2)C[C@H](n2cnc3c(NC4CCCC4)ncnc32)O1	inconclusive: 15.8 µM [inhibitor, partial curve]	
Cc1ccc(-c2csc(N3C(=N)SCC3=O)n2)cc1	inactive	
O=[N+]([O-])c1ccc(C=NNC(=S)NN=Cc2ccc([N+](=O)[O-])cc2)cc1	inconclusive: 35.5 µM [inhibitor, single point]	
O=C(CC1C(=O)NCCN1Cc1ccc(-c2ccccc2)cc1)NCc1ccccc1 (configuration not stated)		inconclusive: -41.1% [inhibitor]
COc1ccc(C(=O)Nc2ccccc2C(=O)N/N=C/c2ccccn2)cc1OC	active: 28.2 µM	
c1ccc(CNc2nc(NCCOc3ccccc3)c3sccc3n2)cc1	active: 28.2 µM	
S=C(NCCc1ccccn1)Nc1ccc(Cl)cc1	inactive	
c1ccc(C2CNCc3c2ccc2ccccc32)cc1 (configuration not stated)	inconclusive: 25.1 µM [inhibitor, partial curve, poor fit]	
O=C1CN2Cc3c(ccc(Cl)c3Cl)N=C2N1	inconclusive: 24.3 µM [inhibitor, single point]	
COCCN(C(=O)CCl)C(C(=O)NC1CCCCC1)c1ccccc1C (configuration not stated)	inconclusive: 28.2 µM [inhibitor, single point]	
O=C(N/N=C/c1cc(Br)ccc1O)C(c1ccncc1)N1CCOCC1 (configuration not stated)	inconclusive: 35.5 µM [inhibitor, single point]	

SMILES	Potency	activity change, negative = inhibition
CC(C)C[C@@H]1Cc2[nH]c(=S)[nH]c(=O)c2[C@H](CCc2ccccc2)O1	inactive	
O=C(Nc1nc2ccccc2n1CCN1CCOCC1)c1ccc(COc2ccccc2Br)o1	inconclusive: 33.6 µM [inhibitor, single point]	
CCOc1cccc(C(=O)Nc2ccc3ccccc3c2)c1	inactive	
O=S(=O)(c1cccc(-c2csc(-c3cccnc3)n2)c1)N1CCCCC1	inconclusive: 20 µM [inhibitor, partial curve, poor fit]	
O=C(CCN1C(=O)c2ccccc2C1=O)Oc1ccc2ccccc2c1	inactive	
Cc1nn(Cc2ccc(Cl)cc2)c(=O)n1N(C)c1ncc(C(F)(F)F)cc1Cl	inactive	
CC(=O)N1CCCC(C(=O)c2ccc(Oc3ccccc3)cc2)C1 (configuration not stated)	inactive	
O=C(CCl)Nc1cc2[nH]c(=O)[nH]c2cc1Br	inconclusive: 37.7 µM [inhibitor, single point]	
Nc1c(C(=O)NCc2ccco2)nnn1Cc1ccccc1	inactive	
O=[N+]([O-])c1ccc(C[n+]2cccc3ccccc32)cc1	inconclusive: 26.7 µM [inhibitor, partial curve, poor fit]	
COc1oc(-c2ccccc2C)nc1C(F)(F)F	inconclusive: 31.6 µM [inhibitor, single point]	
C/C(CC(=O)Nc1ccc(Cl)c(C(F)(F)F)c1)=N\NC(=O)c1cc2ccccc2cc1O	inconclusive: 31.6 µM [inhibitor, single point]	
Fc1ccc(-c2cc3nc(-c4ccccc4)cc(N4CCOCC4)n3n2)cc1	inactive	
CC(C)C(=O)NC(c1ccco1)c1ccc2cccnc2c1O (configuration not stated)	inconclusive: 7.52 µM [inhibitor, full curve, poor fit]	
COc1ccc(OC)c(N=Cc2c(O)[nH]c3ccccc23)c1	inconclusive: 39.8 µM [inhibitor, single point]	
CCN(CC)c1ccc(/C=N/NC(=S)NCc2ccccc2)c(O)c1	inconclusive: 31.6 µM [inhibitor, partial curve]	
COc1ccccc1C(=O)NCCC(=O)Nc1nc2ccccc2[nH]1	inconclusive: 35.5 µM [inhibitor, single point]	
CCN(CC)c1ccc(CNc2nc3ccccc3n2CCN2CCCCC2)cc1	inconclusive: 28.2 µM [inhibitor, single point]	
O=c1oc2ccccc2cc1-c1cn2ccccc2n1	inconclusive: 3.55 µM [inhibitor, single point]	
Cc1ccc(CN(Cc2cccnc2)C(=S)Nc2cc(Cl)ccc2C)cc1	inconclusive: 42.3 µM [inhibitor, partial curve, poor fit]	
O=[N+]([O-])c1ccc(S(=O)(=O)N2CCN(c3ccnc4cc(Cl)ccc34)CC2)cc1	inconclusive: 10 µM [inhibitor, partial curve, poor fit]	
